Results published in PubChem BioAssay AID1745845 (National Center for Advancing Translational Sciences (NCATS), 2022).
Out of some 360,000 compounds screened, about 2,600 (0.72%) were called active. Inconclusive means that the source gave no clear call. Such entries were picked first, then a sample of the others. Calls come from the whole dose curve; as a rule, active = well fitted inhibition curve with a large enough effect; inconclusive = small, poorly fitted or top-dose-only effect; inactive = no such curve, though single readings can be large or run the other way. Potencies of inconclusive entries are doubtful fits and often do not repeat.

Assay: Primary qHTS for Inhibitors of ATXN expression; note: nearly all actives have a fitted effect of over 55% in size
Details: HEK-293 ATXN2-luciferase reporter, luminescence, 24 h; activity change, negative = inhibition: at 57 µM (top of the series)
Summary of the method: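 ATXN2-luciferase reporter cells (luciferase flanked by upstream and downstream ATXN2 gene portions) were treated 24 h at 37 °C with compounds at up to 57 uM. SteadyGlo luminescence gave expression; GF-AFC fluorescence gave viability.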
% is set by controls: 0 for no effect and ±100 for the full control effect; potency is the fitted concentration of half-maximal effect; tags give direction and shape of the fitted curve.

Row | Structure (SMILES) | Potency | activity change, negative = inhibition
1 | CN1CCc2nc(NC(=O)COc3ccc4ccccc4c3)sc2C1 | inconclusive: 12.6 µM [inhibitor, partial curve, poor fit] | 
2 | Cc1cc(C)cc(N2CC(C(=O)Nc3cc(C)on3)CC2=O)c1 (centres undefined) |  | inconclusive: -47.4% [inhibitor]
3 | CCCCOC(=O)CNc1nnc(SCC(=O)OCC)[nH]c1=O | inconclusive: 31.6 µM [inhibitor, partial curve, poor fit] | 
4 | O=C1c2ccccc2S(=O)(=O)N1Cc1nc2ccccc2s1 | active: 3.98 µM | 
5 | COc1ccc(C)cc1NC(=O)COCC(=O)O | inactive | 
6 | COc1cccc(-n2cc(-c3ccc(F)cc3)[nH]c2=S)c1 | inactive | 
7 | C[C@H](O)[C@@H]1C(=O)N2CCc3c([nH]c4ccccc34)[C@@H]2C[C@@H]1N(C)S(=O)(=O)c1ccccc1 | inactive | 
8 | O=C(Nc1ccc2oc(-c3cccnc3)nc2c1)c1ccc(-c2ccc(OC(F)(F)F)cc2)o1 | inactive | 
9 | Cc1ccc(-c2cc(C(=O)Nc3cc(C)on3)c3ccccc3n2)cc1 | inconclusive: 4.47 µM [inhibitor, single point] | 
10 | C[C@H](NC(=O)c1nc[nH]c1C(=O)N[C@@H](Cc1ccccc1)C(=O)OC(C)(C)C)C(=O)OCc1ccccc1 | inactive | 
11 | CC(C)C[C@H](NC(=O)c1nc[nH]c1C(=O)NCCCCCNC(=O)OC(C)(C)C)C(=O)OC(C)(C)C | inconclusive: 39.8 µM [inhibitor, single point] | 
12 | O=C(Nc1ccc(N2CCN(C(=O)c3cccs3)CC2)c(Cl)c1)c1cccnc1 | active: 22.4 µM | 
13 | COc1cc(/C=C2/SC(=S)N(C)C2=O)ccc1OC(=O)c1ccco1 | inactive | 
14 | CC1CCN(S(=O)(=O)c2ccc3c(c2)C(=NO)c2cc(S(=O)(=O)N4CCC(C)CC4)ccc2-3)CC1 | active: 3.55 µM | 
15 | Cc1cc2nn(-c3ccc(F)cc3)nc2cc1NC(=O)c1cccc2ccccc12 | inactive | 
16 | CN(C)C(CNC(=O)c1cccc(S(=O)(=O)N2CCN(c3ccc(F)cc3)CC2)c1)c1ccccc1 (centres undefined) | inconclusive: 17.8 µM [inhibitor, partial curve, poor fit] | 
17 | Cc1ccc(-n2c(N)c(C(=O)Nc3c(C)n(C)n(-c4ccccc4)c3=O)c3nc4ccccc4nc32)cc1 | active: 29.9 µM | 
18 | COc1nc(Cl)cn(-c2ccc(C)cc2)c1=O | inactive | 
19 | COc1cccc(CC2(CO)CCCN(Cc3cc(F)ccc3-n3cccn3)C2)c1 (centres undefined) | inactive | 
20 | Cc1cc(C)c(S(=O)(=O)c2ccc(Cl)cc2)c(Cl)n1 | inactive | 
21 | OC(CCCN1CCCCC1)(c1ccccc1)c1ccc(C(F)(F)F)cc1 (centres undefined) | inconclusive: 14.1 µM [inhibitor, partial curve, poor fit] | 
22 | Cc1cc(C)nc(NN2C(=O)/C(=C/c3ccccc3)SC2=S)n1 | inactive | 

Row | Structure (SMILES) | Potency | activity change, negative = inhibition
23 | Cc1ccc(C(=O)N(CCCN)[C@@H](c2oc3cc(Cl)ccc3c(=O)c2Cc2ccccc2)C(C)C)cc1 | inconclusive: 34.3 µM [inhibitor, partial curve, poor fit] | 
24 | COc1ccc(/C(N)=N/OC(=O)CCCN2C(=O)c3ccccc3C2=O)cc1OC | inconclusive: 0.532 µM [inhibitor, full curve, poor fit] | 
25 | NC(=O)CC(NC(=O)Cc1cccc2ccccc12)c1ccc(NC2CCCCCC2)c([N+](=O)[O-])c1 (centres undefined) | inconclusive: 22.4 µM [inhibitor, partial curve, poor fit] | 
26 | CC(C)OC(=O)CCCC=CC[C@@H]1[C@H](C=C[C@@H](O)COc2cccc(C(F)(F)F)c2)[C@H](O)C[C@@H]1O | inconclusive: 17.2 µM [inhibitor, partial curve] | 
27 | C=CCC[C@H](Cc1ccc(F)cc1)C(=O)OC[C@@H](NC(=O)[C@@H](CC=C)CC(=O)N[C@@H](CO)Cc1ccccc1)C(C)(C)C | inconclusive: 39.8 µM [inhibitor, single point] | 
28 | Clc1ccc(-c2nc(NCCCN3CCOCC3)c3ccccc3n2)cc1 | inconclusive: 12.6 µM [inhibitor, partial curve] | 
29 | Cn1cc(C(=O)N2CCN(c3cccc(C(F)(F)F)c3)CC2)c2c3ccccc3n(C)c2c1=O | inconclusive: 31.6 µM [inhibitor, single point] | 
30 | CCN(CC)S(=O)(=O)c1ccc2oc(SCc3ccc(F)cc3)nc2c1 | inactive | 
31 | CCOC(=O)C1CCN(CC(=O)Nc2ccc(OC)c(Cl)c2)CC1 | inactive | 
32 | C=CCn1c(Cc2ccccc2)nc2c(cnn2-c2ccccc2)c1=O | inactive | 
33 | CN(C)S(=O)(=O)c1ccc(C(=O)NNc2nc(-c3ccccc3)c3cc(Br)ccc3n2)cc1 | inactive | 
34 | Cc1nn(C(C)(C)C)c(OC(=O)C(C)(C)C)c1Sc1ccccc1 | inactive | 
35 | COc1ccccc1NS(=O)(=O)c1ccc2oc(SC(C)C(=O)N3CCNC3=O)nc2c1 (centres undefined) | inconclusive: 8.91 µM [inhibitor, partial curve, poor fit] | 
36 | NNC(=O)c1ccc(S(=O)(=O)N2CCc3ccccc32)cc1 | inactive | 
37 | Cc1ccccc1OCC(=O)OCC(=O)NCCNC(=O)COC(=O)COc1ccccc1C | inactive | 
38 | COc1ccc(S(=O)(=O)N2CCC[C@H]2C(=O)N2CCC[C@H]2C(=O)NCc2ccc(F)cc2F)cc1C | inconclusive: 15.8 µM [inhibitor, partial curve, poor fit] | 
39 | C[C@@H]1CN([C@@H](C)CO)S(=O)(=O)c2ccc(Br)cc2O[C@@H]1CN(C)C(=O)C1CC1 | inactive | 
40 | CCOc1ccc(S(=O)(=O)NCc2ccc3c(c2)OCO3)cc1 | inactive | 
41 | CCOC(=O)C(C(=O)OCC)C(C(=O)OCC)N1CCOCC1 (centres undefined) | inconclusive: 28.2 µM [inhibitor, single point] | 
42 | CC(C)(C)CC(C)(C)c1ccc(OCCOCC[N+](C)(C)Cc2ccccc2)cc1 | inconclusive: 25.1 µM [inhibitor, single point] | 
43 | COC(=O)c1sc(C(F)(F)F)c(-c2ccccc2)c1S(=O)(=O)NC(C)(C)C | inconclusive: 21.2 µM [inhibitor, partial curve, poor fit] | 
44 | C[C@@H]1CN([C@H](C)CO)C(=O)c2cc(NC(=O)Cc3ccccc3)ccc2O[C@H]1CN(C)Cc1ccc(Oc2ccccc2)cc1 | inconclusive: 39.8 µM [inhibitor, single point] | 

Row | Structure (SMILES) | Potency | activity change, negative = inhibition
45 | Cc1ccc(S(=O)(=O)N2CCC(c3ccncc3)CC2)c(C)c1 | inconclusive: 14.1 µM [inhibitor, partial curve, poor fit] | 
46 | COc1ccc(C(=O)OC/C(O)=C(\C#N)c2nc3ccccc3[nH]2)cc1S(=O)(=O)N1CCOCC1 | inactive | 
47 | C=CCC[C@H](Cc1ccc(F)cc1)C(=O)OC[C@H](C)NC(=O)[C@H](CC=C)CC(=O)N(CCO)Cc1ccccc1 | inconclusive: 39.8 µM [inhibitor, single point] | 
48 | COc1ccc(NC(=O)c2sc(=O)n(Cc3ccccc3C#N)c2C)cc1OC | inconclusive: 0.501 µM [inhibitor, partial curve, poor fit] | 
49 | CCc1ccccc1NCC(=O)Nc1ccc(Cl)c(C(F)(F)F)c1 | inconclusive: 22.4 µM [inhibitor, single point] | 
50 | COc1cccc(-n2c(SCc3ccccc3C)nc3c([nH]c4ccccc43)c2=O)c1 | inactive | 
51 | CCN(CC)C(=O)[C@H]1CC(CC(=O)NC/C=C(\C)CCC=C(C)C)C(=O)N2CCc3c([nH]c4ccc(OC)cc34)[C@]12C (some centres undefined) | inconclusive: 35.5 µM [inhibitor, single point] | 
52 | CSc1ccccc1OCc1cc(C(=O)NC2CCc3ccccc32)no1 (centres undefined) | inactive | 
53 | Cc1ccc(/C=N/N=C2/NC(=O)C(CC(=O)Nc3ccccc3)S2)o1 (centres undefined) | inactive | 
54 | Cc1ccc(CNC(=O)CN2C(=O)C3CCCCN3c3ccc(C(=O)N4CCCC4)cc32)cc1 (centres undefined) | inactive | 
55 | CC1C(=O)N(Cc2ccc([N+](=O)[O-])cc2)c2ccccc2N1C(=O)c1c(F)cccc1F (centres undefined) | inconclusive: 42.3 µM [inhibitor, partial curve, poor fit] | 
56 | CC[C@@H](C(=O)[C@@H](C)[C@@H](O)[C@H](C)[C@@H]1O[C@@H]([C@@H](CC)C(=O)O)CC[C@@H]1C)[C@H]1O[C@]2(C=C[C@@H](O)[C@]3(CC[C@@](C)([C@H]4CC[C@](O)(CC)[C@H](C)O4)O3)O2)[C@H](C)C[C@@H]1C | active: 4.47 µM | 
57 | Cc1cc(NC(=O)CSc2nc3sc4c(c3c(=O)n2C)CCCC4)no1 | inconclusive: 8.91 µM [inhibitor, full curve] | 
58 | Cc1c(-c2nsc(NC(=O)c3cccs3)n2)nnn1-c1ccc(Br)cc1 | inconclusive: 39.8 µM [inhibitor, single point] | 
59 | Cc1c(C(=O)Nc2nonc2-c2ccc(F)cc2)oc2ccc(F)cc12 | active: 28.2 µM | 
60 | COc1cc(NC(=O)c2ccccc2NS(=O)(=O)c2ccc(Cl)s2)cc(OC)c1 | inconclusive: 39.8 µM [inhibitor, single point] | 
61 | O=[N+]([O-])c1cn2c(n1)OC[C@@H](OCc1ccc(OC(F)(F)F)cc1)C2 | inconclusive: 8.63 µM [inhibitor, partial curve, poor fit] | 
62 | O=C(NCC1CCCC(CNC(=O)Nc2ccc(Cl)cn2)C1)Nc1ccc(Cl)cn1 (centres undefined) | inconclusive: 39.8 µM [inhibitor, single point] | 
63 | CCOC(=O)C(C)Oc1cccc2c(=O)n(CC(=O)Nc3ccc4c(c3)OCCO4)ccc12 (centres undefined) | inconclusive: 27.3 µM [inhibitor, single point] | 
64 | COc1ccc(NC(=O)c2oc3ccccc3c2NC(=O)COc2ccccc2OC)c(OC)c1 | inconclusive: 17.8 µM [inhibitor, partial curve, poor fit] | 
